Experimental data published in US20050089932A1, “Novel proteins with targeted binding” (Avidia Research Institute, priority 2001, published 2005).

B1: IgE-1.1: heterodimer of IgE-1 and a novel domain, with a C-terminal domain (protein)
chain: CPANEFQCRNSSTCIPRRWLCDGDDDCGDGSDETGCSAPASEPPGSLCQPDQFRCSSGRCLSREWLCDGEDDCEDDSDETDCPTRTSLQ
modifications: IgE-binding walked dimer 1, selected dimer IgE-1.1
notes: heterodimer of IgE-1 and a novel domain, with a C-terminal domain
B2: IgE-1.23x1: IgE-binding multimer built from the heterodimer clones (protein)
chain: CPAGQFRCENGRCLPPPWRCDGVNDCEDNSDEAGCGDSHILPFSTPGPSTCPANEFQCRNSSTCIPRRWLCDGDDDCGDGSDETGCSAPASEPPGSLCQPDQFRCSSGRCLSREWLCDGEDDCEDDSDETDCPTRT
B3: IgE-1.23.23: IgE-binding multimer built from the heterodimer clones (protein)
chain: CPAGQFRCENGRCLPPPWRCDGVNDCEDNSDEAGCGDSHILPFSTPGPSTCPANEFQCRNSSTCIPRRWLCDGDDDCGDGSDETGCSAPASEPPGSLCPAGQFRCENGRCLPPPWRCDGVNDCEDNSDEAGCGDSHILPFSTPGPSTCPANEFQCRNSSTCIPRRWLCDGDDDCGDGSDETGCSAPASEPPGSL
B4: CD28 7: CD28 dimer, sequence >CD28-A7 (protein)
chain: CGPGRFQCESGQCIPATWVCDGENDCVDDSDEKSCATTAPTCGSGQFRCSNGNCLPLRLGCDGVDDCGDSSDEPLDPCAATVRT

Key:
human IgE [1] = target: T1, human IgE (Homo sapiens, UniProt P01854); test: ELISA rank of IgE dimer clones displayed on phage; type: binding; details: thirty-two clones ranked
T1 sequence (P01854 1-427 limits assumed): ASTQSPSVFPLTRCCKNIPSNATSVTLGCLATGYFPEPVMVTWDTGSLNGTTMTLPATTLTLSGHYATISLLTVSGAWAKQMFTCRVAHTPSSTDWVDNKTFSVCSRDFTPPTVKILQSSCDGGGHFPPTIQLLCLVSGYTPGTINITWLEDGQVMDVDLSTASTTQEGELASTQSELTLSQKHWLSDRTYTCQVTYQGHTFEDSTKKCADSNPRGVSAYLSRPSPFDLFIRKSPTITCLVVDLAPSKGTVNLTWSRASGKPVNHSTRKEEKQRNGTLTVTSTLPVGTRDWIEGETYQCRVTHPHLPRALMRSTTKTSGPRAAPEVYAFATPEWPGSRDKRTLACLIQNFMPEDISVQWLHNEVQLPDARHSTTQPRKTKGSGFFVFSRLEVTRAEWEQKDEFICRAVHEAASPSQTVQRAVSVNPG

human IgE [2] = target: T1, human IgE; test: Biacore affinity measurements on immobilized human IgE; type: binding; details: IgE on CM5 chip
monkey PBMC = test: PBMC assay on monkey cells; type: cell-based, cynomolgus monkeys
human PBMC = test: PBMC assay on human cells; type: cell-based

Molecule	ka (human IgE [2])	kd (human IgE [2])	also measured
B1			relative affinity by ELISA binding rank (human IgE [1]): high affinity
B2	5.2 × 10^4	3.7 × 10^−3	Kd (human IgE [2]): 71 nM
B3	1.7 × 10^4	2.6 × 10^−3	
B4			inhibition (monkey PBMC): inhibition = 54%; inhibition (human PBMC): inhibition = 82%
